# Results as given in a collection of fitness landscapes (doi:10.1016/j.celrep.2020.107928).
# In all, about 81,000 sequences were measured (“one-hybrid fitness for binding NBS DNA”: median about -0.1, highest 2% from about 0.36 on). The list shows a part of the results.
# B1: Caulobacter ParB omega fusion; a variant is named by its letters at X, in order, B8GW30 (parent)
# chain: MESVVVGEPGMSEGRRGLGRGLSALLGEVDAAPAQAPGEQLGGSREAPIEILQRNPDQPRRTFREEDLEDLSNSIREKGVLQPILVRPSPDTAGEYQIVAGERAWRAAQRAGLKTVPIMVRELDDLAVLEIGIIENVQRADLNVLEEALSYKVLMEKFERTQENIAQTIGKSXSHVANXMRLLXLPDEVQSYLVSGELTAXHARAIAAAADPVALAKQIIEGGLSVRETEALARKAPNLSAGKSKGGRPPRVKDTDTQALESDLSSVLGLDVSIDHRGSTGTLTITYATLEQLDDLCNRLTRGI
# Variants of: B1
# Test: one-hybrid fitness for binding NBS DNA (the Noc-binding site; scaled: cognate 1, non-cognate 0); higher = stronger binding
# Conditions: with NBS DNA site
# Outline: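 Values were rescaled so that cognate is 1 and non-cognate is 0. Each is a fitness, the log change in a variant's read ratio to wild type from Illumina reads of plasmids before and after selection, with three replicate libraries pooled and variants under 10 reads dropped. Selection of the Caulobacter ParB libraries, four specificity codons randomised, used E. coli USO with a HIS3 reporter, site 19 bp from the promoter, on M9-minus-histidine with 0.1 mM IPTG and 5 mM 3-AT for 48 hours at 37°C.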
row,Variant,one-hybrid fitness for binding NBS DNA
1,SWCS,≤ 0.2
2,VKRA,≤ 0.2
3,NVDW,≤ 0.2
4,RGMF,≤ 0.2
5,AWNT,≤ 0.2
6,MLKC,≤ 0.2
7,MPLT,≤ 0.2
8,DNRC,≤ 0.2
9,HSRD,≤ 0.2
10,SVIN,≤ 0.2
11,AYHY,≤ 0.2
12,RHRD,≤ 0.2
13,PVGR,≤ 0.2
14,RNTM,≤ 0.2
15,HMKT,≤ 0.2
16,GPMF,≤ 0.2
17,ICWG,≤ 0.2
18,NLFT,≤ 0.2
19,SQLI,≤ 0.2
20,WAEL,≤ 0.2
21,HSGN,≤ 0.2
22,PTGE,≤ 0.2
23,AWLR,≤ 0.2
24,NPES,≤ 0.2
25,QRHW,0.288
26,QLVS,≤ 0.2

row,Variant,one-hybrid fitness for binding NBS DNA
1,NWLA,≤ 0.2
2,MFRS,≤ 0.2
3,LWAI,≤ 0.2
4,YFQT,≤ 0.2
5,HLEG,≤ 0.2
6,KERY,≤ 0.2
7,KIAD,≤ 0.2
8,PAHV,≤ 0.2
9,AAEC,≤ 0.2
10,IKCV,≤ 0.2
11,RQPW,≤ 0.2
12,AGCM,≤ 0.2
13,RRMV,0.226
14,KTTY,≤ 0.2
15,CTTS,≤ 0.2
16,RTSW,≤ 0.2
17,TVFG,≤ 0.2
18,LKCE,≤ 0.2
19,KIQR,≤ 0.2
20,RELW,≤ 0.2
21,VTPE,≤ 0.2
22,MSLE,≤ 0.2
23,AVTS,≤ 0.2
24,KHQR,≤ 0.2
25,MAKV,≤ 0.2
26,GISG,≤ 0.2

row,Variant,one-hybrid fitness for binding NBS DNA
1,EFNW,≤ 0.2
2,QYIA,≤ 0.2
3,FMAV,≤ 0.2
4,RYSW,≤ 0.2
5,ETAV,≤ 0.2
6,SPPM,≤ 0.2
7,PLES,≤ 0.2
8,VLAC,≤ 0.2
9,QSDN,≤ 0.2
10,YFAC,≤ 0.2
11,KNWS,≤ 0.2
12,VCSL,≤ 0.2
13,VLQG,≤ 0.2
14,DLWM,≤ 0.2
15,VPMG,≤ 0.2
16,DVPS,≤ 0.2
17,PRSH,≤ 0.2
18,AVPD,≤ 0.2
19,LPPN,≤ 0.2
20,TPHT,≤ 0.2
21,LIVC,≤ 0.2
22,HENI,≤ 0.2
23,PQKM,≤ 0.2
24,QMPD,≤ 0.2
25,KWDT,≤ 0.2
26,QCES,0.301

row,Variant,one-hybrid fitness for binding NBS DNA
1,KRLN,≤ 0.2
2,HAWS,≤ 0.2
3,ERGK,≤ 0.2
4,QTNL,0.214
5,RMAQ,≤ 0.2
6,THAI,≤ 0.2
7,FNVV,≤ 0.2
8,LFPF,≤ 0.2
9,VKWV,≤ 0.2
10,RAHH,≤ 0.2
11,QCAH,0.255
12,YTTG,≤ 0.2
13,QSGD,≤ 0.2
14,RCAI,≤ 0.2
15,FEAL,≤ 0.2
16,KRTK,≤ 0.2
17,IKPR,≤ 0.2
18,AFVP,≤ 0.2
19,HMFN,≤ 0.2
20,KAHN,≤ 0.2
21,IYSL,≤ 0.2
22,RQFK,≤ 0.2
23,RTGC,≤ 0.2
24,LQFG,≤ 0.2
25,GIFS,≤ 0.2
26,NHRF,≤ 0.2

row,Variant,one-hybrid fitness for binding NBS DNA
1,RQVD,≤ 0.2
2,YYRS,≤ 0.2
3,TPEQ,≤ 0.2
4,RQTR,0.497
5,DKPN,≤ 0.2
6,DTYG,≤ 0.2
7,VSWT,≤ 0.2
8,VIIR,≤ 0.2
9,EHNM,≤ 0.2
10,CIST,≤ 0.2
11,YAMT,≤ 0.2
12,GCGG,≤ 0.2
13,RFHN,≤ 0.2
14,LRWR,≤ 0.2
15,MLLG,≤ 0.2
16,LLEN,≤ 0.2
17,SFCV,≤ 0.2
18,QKAT,0.543
19,CSWW,≤ 0.2
20,KTSC,≤ 0.2
21,CPKG,≤ 0.2
22,WSIQ,≤ 0.2
23,RFRM,≤ 0.2
24,TDWT,≤ 0.2
25,QKMK,≤ 0.2
26,TACQ,≤ 0.2

row,Variant,one-hybrid fitness for binding NBS DNA
1,AILY,≤ 0.2
2,MRMY,≤ 0.2
3,QVTT,0.324
4,AEEL,≤ 0.2
5,QTLC,≤ 0.2
6,RAGA,≤ 0.2
7,VDEG,≤ 0.2
8,TSRY,≤ 0.2
9,VPWM,≤ 0.2
10,TEMC,≤ 0.2
11,HDMS,≤ 0.2
12,KYMY,≤ 0.2
13,RADI,≤ 0.2
14,LQPG,≤ 0.2
15,CILV,≤ 0.2
16,SALQ,≤ 0.2
17,YLEN,≤ 0.2
18,GSAG,≤ 0.2
19,QLNE,≤ 0.2
20,AGRE,≤ 0.2
21,VRVV,≤ 0.2
22,GGPV,≤ 0.2
23,IGRM,≤ 0.2
